SMILES strings stand for the structures. Hit rate of the full screen: of about 48,000 compounds, about 1,200 (2.5%) were called active. Roughly 2% stayed inconclusive and do not appear here.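 Rule for the calls: active = activation of at least 60% and not above a set upper limit (about 1 call in 100 departs from these limits); inconclusive = activation of 40% to 60%, or above that upper limit; inactive = activation under 40%.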 The list shows a part of the results.

In PubChem BioAssay AID1346428 (National Center for Advancing Translational Sciences (NCATS), 2018) one finds activation data, which are given here for 83 molecules.

Sequence of UniProt O75388 (O75388 whole entry, looked up): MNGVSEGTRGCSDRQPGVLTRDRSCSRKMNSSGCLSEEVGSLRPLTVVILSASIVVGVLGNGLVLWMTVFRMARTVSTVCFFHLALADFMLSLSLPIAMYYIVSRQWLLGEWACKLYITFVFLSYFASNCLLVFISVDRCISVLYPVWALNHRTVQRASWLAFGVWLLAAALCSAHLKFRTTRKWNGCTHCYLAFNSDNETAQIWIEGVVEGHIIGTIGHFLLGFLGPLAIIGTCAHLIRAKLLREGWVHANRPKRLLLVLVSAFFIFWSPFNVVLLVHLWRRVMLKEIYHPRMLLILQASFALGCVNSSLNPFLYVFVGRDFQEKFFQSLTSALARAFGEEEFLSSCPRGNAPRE

The experiment has as its target Probable G-protein coupled receptor 32 (Homo sapiens) (UniProt O75388). In words: qHTS for Agonists of Human Resolvin D1 Receptor DRV1. Note: 0% is about no effect. The conditions noted are these: CHO-K1 GPR32 beta-arrestin PathHunter luminescence, 90 min; at 76.9 µM; active compounds read high; zero percent set by DMSO-only wells. Summed up:
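CHO-K1 cells stably expressing ProLink-tagged GPR32 and Enzyme Activator-tagged beta-arrestin were seeded at 2,500 cells/well overnight, exposed to compounds for 90 min at 37 °C, then read by beta-Gal complementation chemiluminescence after 1 h detection reagent.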
As to `Cc1cc(C)cc(S(=O)(=O)c2cn(C)c3cc(N4CCCC4)c(F)cc3c2=O)c1`, the activation is inactive: -5.76%. Turning to `Cc1ccc(-c2nc3sc(CCNC(=O)c4ccc(C)c(C)c4)c(C)n3n2)cc1`, the activation was inactive: 6.18%. In the case of `CCc1ccccc1NC(=O)N(C)CCc1c(C)nn(C)c1C` it was inactive: 1.29%; in that of `COc1ccc(C(=O)n2nc(-c3ccco3)nc2NCc2cccs2)cc1OC`, inactive: -30.6%; in that of `Cc1ccccc1-n1c(SCc2ccc(Cl)cc2)nc2[nH]ncc2c1=O`, inactive: -22.7%. In the case of `COc1cccc(N2CCN(C(=O)CCc3c(C)nc4c(c3C)c(=O)n(C)c(=O)n4C)CC2)c1` it was inactive: 1.58%; in that of `CCC(C)NC(=O)c1ccc2c(c1)N(Cc1ccccc1)C(=O)c1ccccc1S2` (stereo not drawn), inactive: -8.51%; in that of `CCN(CC)c1cc2c(cc1F)c(=O)c(S(=O)(=O)c1ccc(OC)cc1)cn2CC`, inactive: 2.88%. In the case of `CCOc1ccc(CNC(=O)C2CCCN(S(=O)(=O)c3ccc4c(ccn4C)c3)C2)cc1` (stereo not drawn) it was inactive: -2.88%; in that of `COc1ccc(-c2c3c(=O)n(C)c(=O)n(C)c3c3c(C)nc4ccccc4n23)cc1`, inactive: -30.1%. Take `CC(C)(C)c1ccc(-c2nc(SCCCOc3ccccc3)n3[nH]c(=O)cc3n2)cc1`: the activation was inactive: -19.6%. For the molecule `COc1ccc(-c2nc(CN3CCC(C(=O)NCc4ccccc4)CC3)c(C)o2)cc1OC`, the activation is inactive: -4.61%. In the case of `Cn1nnc2c(N3CCN(c4ccccc4Cl)CC3)ncnc21` it was inactive: -16%. In the case of `CCOC(=O)c1ccccc1NC(=O)N(C(C)C)C1CCN(C(C)=O)CC1` it was inactive: -10.6%. In the case of `CCOC(=O)Cn1c(=O)n(-c2ccccc2OC)c2nc(-c3cccc(F)c3)nc(C(N)=O)c21` it was inactive: -15.7%; in that of `Cc1ccc(-c2nnc(SCc3cccc(C#N)c3)o2)cc1`, inactive: 2.9%; in that of `CCOC(=O)c1cccnc1SCC(=O)Nc1ccc(C)cc1C`, inactive: -24%. As for `CN(C)CCNC(=O)c1ccc2c(=O)n3c(nc2c1)CCCCC3`, the activation was inactive: -5.31%.

As for `O=C(NCCc1ccccc1)c1nnc(Cc2cccc(F)c2)o1`, the activation is inactive: -1.11%.

Take `COc1ccc(-c2nc(C)c(CCNS(=O)(=O)c3cc(C)c(C)cc3C)s2)cc1`: the activation was inactive: -0.585%. In the case of `Cc1ccc2c(c1)-c1c(cnc3cc(-c4ccccc4)nn13)CO2` it was inactive: -13.2%; in that of `CCCCc1ccc(NC(=O)c2ccc(=O)n(Cc3cccc(C)c3)c2)cc1`, inactive: 19%; in that of `Cc1cccc(N2CCN(C(=O)c3cccc(-n4c(C)nc5cccnc54)c3)CC2)c1C`, inactive: 4.78%. In the case of `CCn1c(=O)[nH]c2cc(Cl)c(Cl)cc21` it was inactive: 12%; in that of `CCOc1ccccc1CNC(=O)C1CCN(c2nn3cc(-c4ccc(F)cc4)nc3s2)CC1`, inactive: -0.729%. In the case of `CCCCCCOc1ccc(C2C(=O)N(C3CCCCC3)CC(=O)N2CCC)cc1` (stereo not drawn) it was inactive: -23.6%; in that of `N#C/C(=C\c1ccc(Cl)cc1Cl)c1nc(-c2cccc(Cl)c2)cs1`, inactive: 5.28%; in that of `CCOc1ccccc1N(CC(=O)NCCSc1ccccc1)S(=O)(=O)c1ccccc1`, inactive: 10.5%. Turning to `CC(C)c1ccc(CN(Cc2ccco2)c2cnc(S(C)(=O)=O)nc2C(=O)Nc2ccc(F)cc2)cc1`, the activation is inactive: -4.68%. Take `Cc1ccc(C(=O)Nc2cc3nn(-c4ccccc4)nc3cc2Cl)c(C)c1`: the activation is inactive: -9.86%. In the case of `Cc1cccc(N2CCN(C(=O)Nc3cn(CC(C)C)c(=O)c4ccccc34)CC2)c1C` it was inactive: -7.62%. As for `Cc1nnc(N2CCC(C(=O)NCCc3ccccc3Cl)CC2)c2nn(-c3ccccc3)c(C)c12`, the figure is inactive: -9.76%; as for `COc1ccccc1Cc1nc2ccccc2nc1SCC(=O)N(C)c1ccc(F)cc1`, inactive: -14.5%. In the case of `CCc1nn(CC(=O)NCCCN(CC(C)C)CC(C)C)c(=O)c2cc3sc(C)cc3n12` it was inactive: -7.17%.

`COc1ccccc1N1CCN(C(=O)Cn2cnc3onc(-c4ccc(F)cc4)c3c2=O)CC1`: the activation was inactive: 19%.

For the molecule `CCCCN(C)C(=O)C1CCCN(c2ncnc3onc(C)c23)C1` (stereo not drawn), the activation was inactive: 40.3%.

`CCOc1ccc(C(=O)Nc2cccc(-c3nc4cc(Cl)cc(Cl)c4o3)c2)cc1`: the activation was inactive: -2.67%. In the case of `COc1ccc(Cn2c(=O)c3oc4ccccc4c3n(Cc3cccc(C(F)(F)F)c3)c2=O)cc1` it was inactive: -27.3%; in that of `Cc1nn(-c2ccccc2)c2c1N(CC(=O)N1CCN(c3cccc(Cl)c3)CC1)C(=O)CS2`, inactive: -14.9%. On to `O=C(c1ccc2c(=O)n(CCc3ccccc3)c(=O)[nH]c2c1)N1CCN(c2ccc(F)cc2)CC1`, for which the activation is inactive: 12%. As to `COc1cccc(N2CC(NC(=O)c3ccco3)CC2=O)c1` (stereo not drawn), the activation is inactive: -4.76%. In the case of `CC(=O)c1cccc(NC(=O)c2cc(-c3ccc(Cl)s3)nc3ccccc23)c1` it was inactive: 0.541%; in that of `COc1ccc(NC(=O)CC2C(=O)N(c3cccc(C)c3)C(=O)N2C2CCCCC2)cc1` (stereo not drawn), inactive: 8.23%; in that of `OCC1NCC(O)C(O)C1O` (stereo not drawn), inactive: 6.12%.

Take `COc1ccc(-c2nnc(SCC(=O)Nc3ccc(C(C)C)cc3)nc2-c2ccc(OC)c(OC)c2)cc1OC`: the activation was inactive: -19.3%. As for `CC(C)c1ccc(S(=O)(=O)c2nnn3c2nc(N2CCCCC2)c2sccc23)cc1`, the figure is inactive: -12.7%; as for `CCC(C)(Oc1ccc(C2(c3ccc(OC(C)(CC)C(=O)O)cc3)CCCCC2)cc1)C(=O)O` (stereo not drawn), inactive: 5.35%. As for `Cc1ccc(C)c(Cn2c(-c3cccs3)nc3ccccc32)c1`, the figure is inactive: -27.7%; as for `Cc1ccc(C)c(CN2C(=O)N(c3cc(Cl)ccc3C)S(=O)(=O)c3ccccc32)c1`, inactive: 33.9%. As for `CC(C)Cc1ccc(S(=O)(=O)Nc2cc3c(cc2N2CCOCC2)n(C)c(=O)c(=O)n3C)cc1`, the figure is inactive: 20.8%; as for `CCOc1ccccc1CNS(=O)(=O)c1ccc2[nH]c(=O)ccc2c1`, inactive: 32.4%; as for `COc1cccc(C(=O)Nc2ccc(-c3cc(C(F)(F)F)nn3-c3ccccc3)cc2)c1`, inactive: -9.6%. Turning to `COc1ccc(NC(=O)CSc2nnc(NC(=O)Nc3ccc(OC)cc3)s2)cc1`, the activation was inactive: -2.52%. For `CCN(CCCNC(=O)CN1N=C(c2ccc(OC)cc2)CCC1=O)c1cccc(C)c1`, the activation was inactive: -15.5%. For the molecule `CCC(C(=O)Nc1c(C)cc(C)cc1C)n1c(=O)c(-c2ccccc2NC(C)=O)nc2ccccc21` (stereo not drawn), the activation is inactive: -0.494%. In the case of `CN(Cc1ccccc1)S(=O)(=O)c1cc(Br)cc2c1N(C(=O)C1CC1)CC2` it was inactive: 5.2%; in that of `CCOC(=O)C1CCCN(C(=O)c2cc3c(=O)[nH]c4ccc(C)cc4c3s2)C1` (stereo not drawn), inactive: 28.6%.

With `COc1cccc(Nc2sc(C(=O)c3ccc(F)cc3)c(N)c2C(=O)NCc2ccc(Cl)cc2)c1`, the activation is inactive: 4.25%. In the case of `CCOc1ccc(CCNC(=O)CCCn2nc(C)c3sc4ccccc4c3c2=O)cc1` it was inactive: -17.6%; in that of `CCCCN(C)CCCNC(=O)c1cc(-c2ccc(Br)s2)nc2ccccc12`, inactive: 7.67%; in that of `COc1ccc(-c2ccc(NS(=O)(=O)c3ccc(C(C)=O)cc3)cc2)nn1`, inactive: -21%.

For `Cc1ccc(NS(=O)(=O)c2c(C)[nH]c(=O)[nH]c2=O)c(C)c1`, the activation was inactive: 4.76%. As for `COc1cccc(N2CC(NC(=O)CCCc3ccccc3)CC2=O)c1` (stereo not drawn), the figure is inactive: -2.79%.

Turning to `Cc1ccc(-c2noc(CNC(=O)c3ccc(Br)o3)n2)cc1`, the activation is inactive: -10.7%. As for `CSc1ccc(CCNC(=O)c2cnc3c(C)cccn3c2=O)cc1`, the figure is inactive: -7.52%; as for `CCc1nnc(NC(=O)CSc2nccn2-c2ccc(OC)cc2)s1`, inactive: -21.6%; as for `CCn1c(C)c(C2N3CC4(C)CN2CC(C)(C3)C4=O)c2ccccc21` (stereo not drawn), inactive: -2.91%. As for `Cc1nc(C)c(-c2ccc(SCC(=O)Nc3ccc(Br)cc3)nn2)s1`, the figure is inactive: 15%; as for `CC(=O)c1cccc(-n2c(=O)c3c4c(sc3n(CC(=O)c3ccccc3)c2=O)CN(C(C)=O)CC4)c1`, inactive: -0.151%; as for `CC(=O)c1cc2c(cc1N/C(=N/S(=O)(=O)c1ccc(Cl)cc1)c1ccc(F)cc1)OCO2`, inactive: -6.52%.

`Cc1ccc(C)c(CN2C(=O)c3ccccc3S(=O)(=O)c3ccc(C(=O)N(C)C4CCCCC4)cc32)c1`: the activation was inactive: -25.7%. As for `Cc1nn(-c2ccccc2)c(OC(=O)C(C)C)c1Sc1ccc(Cl)cc1`, the figure is inactive: 14.6%; as for `Cc1ccc(CNC(=O)CCCCCn2c(=O)[nH]c3ccccc3c2=O)cc1`, inactive: -6.59%.

Take `Cc1ccc(/C=C/c2onc(C)c2S(=O)(=O)N2CCC(C(=O)Nc3ccc(C)c(N(C)C)c3)CC2)cc1`: the activation was inactive: -16.1%. In the case of `COc1cc(C(=O)Oc2c(Sc3ccccc3)c(C)nn2-c2ccccc2)cc(OC)c1OC` it was inactive: 12.1%; in that of `CCc1ccccc1NC(=O)Nc1c[nH]c(=O)[nH]c1=O`, inactive: -7.22%. For the molecule `Cc1ccc(C)c(N2CCN(C(=O)c3ccc(NC(=O)c4nsc5ccccc45)cc3)CC2)c1`, the activation was inactive: -17.9%. With `CC1CCCN(CCCNC(=O)c2ccc3c(c2)N(Cc2ccccc2F)C(=O)c2ccccc2S3(=O)=O)C1` (stereo not drawn), the activation is inactive: -4.66%. In the case of `Cc1ccccc1-c1nc(CN2CCC(C(=O)NCc3ccccc3Cl)CC2)c(C)o1` it was inactive: 3.3%; in that of `CCOc1ccc(N2CC(NC(=O)CCc3ccccc3)CC2=O)cc1` (stereo not drawn), inactive: -0.0653%. As for `CC(C)(C)c1ccc(NC(=O)C2CCCN(c3cnccn3)C2)cc1` (stereo not drawn), the figure is inactive: 1.28%; as for `Cc1ccc2c(c1)c1c(c(=O)n(-c3cccc(Cl)c3)c(=O)n1CC(=O)Nc1c(C)cccc1C)n2C`, inactive: -2.68%. As for `CCOC(=O)c1ccccc1NC(=O)CSc1nc2cn(CC)nc2c(=O)n1Cc1ccc(Cl)cc1`, the activation is inactive: -8%.
